According to PubChem BioAssay AID1466 (National Center for Advancing Translational Sciences (NCATS), 2008):
The campaign covered roughly 200,000 compounds. About 10 (0.005%) were called active. Inconclusive results, whose numbers are uncertain, are shown with a selection of clear calls. Calls follow the shape of the dose curve; as a rule, active = well fitted inhibition curve with a large enough effect; inconclusive = small, poorly fitted or top-dose-only effect, or effect the other way, or another doubt; inactive = no such curve, though single readings can be large or run the other way. No potency is given beside an inconclusive call; the fits are too rough.
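For activity change, negative = inhibition in this document: plate controls were uninhibited enzyme wells for no effect and no-enzyme background for full effect.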
Potency is read from the fitted curve at half-maximal effect; tags tell the direction and shape of the fitted curve.

The compounds below were run against Lysosomal alpha-glucosidase (Homo sapiens) (UniProt P10253) (assay: qHTS Assay for Inhibitors of Human alpha-Glucosidase as a Potential Chaperone Treatment of Pompe Disease). Details: purified human GAA, 4-MU-alpha-glucoside fluorescence; activity change, negative = inhibition: at 76.9 µM (top of the series) unless noted.
In short: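 Read-out is 4-methylumbelliferone fluorescence (Ex 365/Em 440 nm) after NaOH/glycine stop at pH 10. Enzyme 4 nM, substrate 400 uM, pH 5.0 citrate buffer, 20 min room temperature; AC50 from Hill-equation concentration-response.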
In the case of `Cc1cc(Cl)ccc1N(CC(=O)N=Nc1c(O)[nH]c2ccccc12)S(C)(=O)=O`, the Potency is reported as inconclusive [inhibitor, partial curve].
With `COc1ccc(/C=C2/CCc3ccccc3C2=O)cc1CN1CCOCC1` the Potency was inconclusive [inhibitor, full curve, poor fit].
In the case of `CCOC(=O)c1csc(-c2ccc([N+](=O)[O-])cc2)n1`, the Potency is reported as inconclusive [inhibitor, full curve, poor fit].
For `CCCn1nc(C(=O)Oc2ccc3c(C)cc(=O)oc3c2)c2ccccc2c1=O`, the Potency was inconclusive [activator, partial curve].
For `COc1ccccc1C1=NOC(COC(=O)c2ccc(Br)cc2)C1` (centres undefined), the Potency was inconclusive [inhibitor, partial curve].
In the case of `OCc1cn(-c2ccccc2)nc1-c1ccc2c(c1)OCCO2`, the Potency is reported as inconclusive [inhibitor, single point].
In the case of `COC(=O)c1cc(-c2ccccc2)sc1NC(=O)CN1C(=O)c2ccccc2C1=O`, the Potency is reported as inconclusive [inhibitor, single point].
For `COc1cccc(NC(=O)c2ccccc2-c2ccccc2)c1`, the Potency was inconclusive [inhibitor, partial curve].
`COC1=CCC2([N+](=O)[O-])CN(CC(=O)O)CC1([N+](=O)[O-])C2` (centres undefined) was tested, and the Potency was inconclusive [inhibitor, full curve].
For `CN(Cc1ccccc1)c1ccc(S(=O)(=O)N2CCOCC2)cn1`, the Potency was inconclusive [inhibitor, single point].
In the case of `COc1ccc(-n2nnnc2SCC(=O)Nc2nnc(C)s2)cc1OC`, the Potency is reported as inconclusive [inhibitor, single point].
`S=C(Nc1ccc2nc(-c3ccccn3)c(-c3ccccn3)nc2c1)N1CCCCC1` was tested, and the Potency was “inactive”.
For `CC1(C)Oc2ccc(C(=O)NC3CCCC3)cc2N(CC(=O)NC2CCCC2)C1=O`, the Potency was inconclusive [inhibitor, single point].
In the case of `COc1ccc(CC(NC(C)=O)C(=O)NC2CCN(c3c(Cc4ccccc4)c(C)nc4ncnn34)CC2)c(OC)c1` (centres undefined), the activity change, negative = inhibition is reported as inconclusive: 6.54% [activator].
In the case of `C=CCN=C(NC#N)SCC(=O)c1cccc(OC)c1`, the activity change, negative = inhibition is reported as inconclusive: -18.7% [inhibitor].
In the case of `CCc1ccc(NC2CC(=O)N(CCc3ccc(OC)c(OC)c3)C2=O)cc1` (centres undefined), the Potency is reported as “inactive”.
With `COc1ccc(C2CC(c3ccccc3)=NN2c2ccc(N)cc2)cc1` (centres undefined) the activity change, negative = inhibition was inconclusive: -16.5% [inhibitor].
With `COc1ccc(F)cc1C(=O)C1CCCN(Cc2cccn2-c2ccccn2)C1` (centres undefined) the Potency was inconclusive [inhibitor, single point].
`COc1ccc2cc(C(=O)C3CCCN(C(=O)/C=C/c4ccccn4)C3)ccc2c1` (centres undefined) was tested, and the activity change, negative = inhibition was inconclusive: 11.6% [activator].
With `OCC1(CCOc2ccccc2)CCN(CC2=Cc3cc(Cl)ccc3OC2)CC1` the Potency was inconclusive [inhibitor, partial curve, poor fit].
In the case of `O=[N+]([O-])c1c(N2CCN(CCO)CC2)nc2ccccn12`, the Potency is reported as inconclusive [inhibitor, partial curve].
For `COc1ccc(C2NC3=C(CCCC3)C(C#N)(C#N)C2(C#N)C#N)cc1` (centres undefined), the Potency was “inactive”.
`N#CC1=C2N=C(N)c3c(sc4c3CCCCC4)N2C2=C(C(=O)CCC2)C1c1ccccc1` (centres undefined) was tested, and the Potency was inconclusive [inhibitor, full curve].
For `COc1ccc([C@@H]2C[C@H]3CN(Cc4ccccc4OC)C(=O)[C@]34CCCN24)cc1C`, the activity change, negative = inhibition was inconclusive: 16.7% [activator].
In the case of `Cc1ccc(C(=O)C2CCOC(C)(C)C2)cc1` (centres undefined), the activity change, negative = inhibition is reported as inconclusive: 13.3% [activator].
`C/C(=N\NS(=O)(=O)c1ccccc1)c1cc(Cl)cc(Cl)c1O` was tested, and the Potency was inconclusive [inhibitor, partial curve].
`O=C(CC1C(=O)NCCN1Cc1cccc(Oc2ccccc2)c1)NCC1CCOCC1` (centres undefined) was tested, and the activity change, negative = inhibition was inconclusive: 18% [activator].
With `CCOC(=O)N1CCN(C(=O)C(=O)NNC(=O)COc2ccc(Cl)cc2)CC1` the Potency was inconclusive [inhibitor, single point].
With `O=C(c1ccncc1)c1ccc(N2CCN(C3CC(=O)N(Cc4ccccc4)C3=O)CC2)cc1` (centres undefined) the activity change, negative = inhibition was inconclusive: -17% [inhibitor].
`O=Cc1nc(-c2ccccc2Cl)n2ccccc12` was tested, and the Potency was inconclusive [activator, partial curve, poor fit].
For `CCn1c(SCC(=O)N/N=C/C=C/c2ccco2)nnc1-c1ccc(OC)cc1`, the Potency was “inactive”.
`C=CCn1c(SCC(=O)N2CCc3ccccc3C2)nc2sc(C)cc2c1=O` was tested, and the activity change, negative = inhibition was inconclusive: 2.57% [activator].
For `O=C(Nc1ccc(C(F)(F)F)cc1)c1cnc(N2CCN(c3ccccn3)CC2)c2ccccc12`, the Potency was inconclusive [activator, single point].
In the case of `CC(C)NC1=C(Cl)C(=O)c2ccccc2C1=O`, the Potency is reported as “inactive”.
With `CC(C)Cn1c(N)c(C(=O)NCC2CCCO2)c2nc3ccccc3nc21` (centres undefined) the Potency was inconclusive [activator, partial curve].
In the case of `O=C(CSc1ncccn1)Nc1ncc(C(F)(F)F)cc1Cl`, the activity change, negative = inhibition is reported as inconclusive: 11.1% [activator].
In the case of `O=c1c2ccccc2sn1-c1cc(S(=O)(=O)N2CCOCC2)ccc1N1CCCC1`, the Potency is reported as inconclusive [activator, partial curve].
`Cc1noc(C)c1COc1ccc(C(=O)OCC(=O)Nc2c(C)n(C)n(-c3ccccc3)c2=O)cc1` was tested, and the Potency was inconclusive [activator, partial curve].
For `O=C(CNS(=O)(=O)c1ccc(F)cc1)N1CCN(c2ccc(F)cc2)CC1`, the Potency was inconclusive [inhibitor, single point].
In the case of `CC(C)C1=Nc2cccc3cccc(c23)N1`, the activity change, negative = inhibition is reported as inconclusive: 15.3% [activator].
For `CCOc1cc(/C=N/Nc2nc(N3CCCCC3)nc(N3CCCCC3)n2)ccc1OC(=O)c1ccco1`, the Potency was inconclusive [inhibitor, single point].
In the case of `Fc1cccc(CN2CCN(Cc3nc(CCc4ccccc4)no3)CC2)c1`, the Potency is reported as inconclusive [inhibitor, partial curve, poor fit].
For `O=C(Nc1cccc(F)c1)c1cc(S(=O)(=O)NCCC2=CCCCC2)ccc1F`, the Potency was inconclusive [inhibitor, single point].
With `CCCC(=O)Nc1nc(-c2ccc(Cl)s2)cs1` the Potency was inconclusive [inhibitor, single point].
For `CC(C)(C)n1nnnc1C(c1cc2cc3c(cc2[nH]c1=O)OCO3)N1CCN(c2ccccc2)CC1` (centres undefined), the Potency was inconclusive [activator, single point].
`CC(=O)Nc1ccc(C(=O)OCC(=O)N(Cc2ccccc2)C(C)(C)C)cc1` was tested, and the activity change, negative = inhibition was inconclusive: 11.4% [activator].
With `CCN(CC)C(=O)c1sc(NC(=O)c2ccoc2C)c(C(=O)OC)c1C` the Potency was inconclusive [inhibitor, single point].
In the case of `Cc1ccc(-c2cc(C(F)F)n3ncc(C(=O)Nc4c(C)nn(Cc5ccccc5Cl)c4C)c3n2)cc1`, the Potency is reported as inconclusive [inhibitor, full curve].
`CCOC(=O)COc1c(Br)cc(/C=C2\SC(=O)N(CC(=O)N3CCCC3)C2=O)cc1OC` was tested, and the Potency was inconclusive [inhibitor, partial curve].
`Nc1cc(C(=O)O)c(Oc2ccc(Cl)cc2Cl)cc1C(=O)O` was tested, and the Potency was inconclusive [activator, partial curve].
With `CN(C)/C=C/C(=O)c1ccc(Oc2ncccn2)cc1` the Potency was inconclusive [inhibitor, single point].
In the case of `CC(=O)Nc1ccc(-c2csc(NCc3ccco3)n2)cc1`, the Potency is reported as inconclusive [inhibitor, partial curve].
In the case of `CCOC(=O)C1=C(CSc2nc(C)ccc2C#N)OC(N)=C(C#N)C1c1cccc(OC)c1OC` (centres undefined), the Potency is reported as inconclusive [inhibitor, full curve].
`Cc1ccc(-c2cn(S(=O)(=O)c3cccc4nsnc34)nc2N)cc1` was tested, and the Potency was inconclusive [activator, partial curve, poor fit].
With `COc1cccc(CNCCSc2nnnn2C)c1` the Potency was inconclusive [inhibitor, full curve, poor fit].
In the case of `COc1ccc(C(CCNCc2ccc(OC(C)C)cc2)C(C)C)cc1` (centres undefined), the Potency is reported as inconclusive [inhibitor, single point].
In the case of `Cn1cc(Br)c(C(=O)n2cc(Br)cn2)n1`, the activity change, negative = inhibition is reported as inconclusive: 22.9% [activator].
With `CCOC(=O)c1cnc2sc3c(n2c1=O)CCCC3` the Potency was inconclusive [activator, partial curve].
In the case of `CCOCCOC(=O)C(C)Oc1ccc(Oc2nc(Cl)ccc2Cl)cc1` (centres undefined), the Potency is reported as inconclusive [inhibitor, full curve, poor fit].
In the case of `CC(=O)N(Cc1nc2sc(C)c(C)c2c(=O)[nH]1)C1CCCC1`, the activity change, negative = inhibition is reported as inconclusive: 12.5% [activator].
`CC(=O)Nc1ccc(C(=O)CSc2nc3ccc(C)cc3[nH]2)cc1` was tested, and the activity change, negative = inhibition was inconclusive: 15.6% [activator].
`Cc1nc2c(C#N)c[nH]n2c(=O)c1Cc1ccccc1` was tested, and the activity change, negative = inhibition was inconclusive: 19.8% [activator].
In the case of `CN1/C(=C\C=Nc2cc(S(=O)(=O)N3CCOCC3)ccc2N2CCOCC2)C(C)(C)c2ccccc21`, the Potency is reported as inconclusive [inhibitor, single point].
In the case of `Cc1cc(C)cc(NC(=O)c2nnn(Cc3cc(C)ccc3C)c2N)c1`, the Potency is reported as inconclusive [inhibitor, partial curve].
